Experimental data: article PMC4336329 (PLoS ONE, 2015)
Screen size: about 310,000 compounds; about 14,000 (4.5%) showed an effect of 50% or more. The effect is printed as a negative number. The list shows a part of the results.

These compounds were tested against human ether-à-go-go-related gene (hERG) potassium channel (human, UniProt Q12809) (assay: primary screen, population patch clamp on CHO cells stably expressing hERG).
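Also: peak tail current of the secondary pulse compared with the same well before compound.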

Sequence of human ether-à-go-go-related gene (hERG) potassium channel (Q12809 whole entry, looked up): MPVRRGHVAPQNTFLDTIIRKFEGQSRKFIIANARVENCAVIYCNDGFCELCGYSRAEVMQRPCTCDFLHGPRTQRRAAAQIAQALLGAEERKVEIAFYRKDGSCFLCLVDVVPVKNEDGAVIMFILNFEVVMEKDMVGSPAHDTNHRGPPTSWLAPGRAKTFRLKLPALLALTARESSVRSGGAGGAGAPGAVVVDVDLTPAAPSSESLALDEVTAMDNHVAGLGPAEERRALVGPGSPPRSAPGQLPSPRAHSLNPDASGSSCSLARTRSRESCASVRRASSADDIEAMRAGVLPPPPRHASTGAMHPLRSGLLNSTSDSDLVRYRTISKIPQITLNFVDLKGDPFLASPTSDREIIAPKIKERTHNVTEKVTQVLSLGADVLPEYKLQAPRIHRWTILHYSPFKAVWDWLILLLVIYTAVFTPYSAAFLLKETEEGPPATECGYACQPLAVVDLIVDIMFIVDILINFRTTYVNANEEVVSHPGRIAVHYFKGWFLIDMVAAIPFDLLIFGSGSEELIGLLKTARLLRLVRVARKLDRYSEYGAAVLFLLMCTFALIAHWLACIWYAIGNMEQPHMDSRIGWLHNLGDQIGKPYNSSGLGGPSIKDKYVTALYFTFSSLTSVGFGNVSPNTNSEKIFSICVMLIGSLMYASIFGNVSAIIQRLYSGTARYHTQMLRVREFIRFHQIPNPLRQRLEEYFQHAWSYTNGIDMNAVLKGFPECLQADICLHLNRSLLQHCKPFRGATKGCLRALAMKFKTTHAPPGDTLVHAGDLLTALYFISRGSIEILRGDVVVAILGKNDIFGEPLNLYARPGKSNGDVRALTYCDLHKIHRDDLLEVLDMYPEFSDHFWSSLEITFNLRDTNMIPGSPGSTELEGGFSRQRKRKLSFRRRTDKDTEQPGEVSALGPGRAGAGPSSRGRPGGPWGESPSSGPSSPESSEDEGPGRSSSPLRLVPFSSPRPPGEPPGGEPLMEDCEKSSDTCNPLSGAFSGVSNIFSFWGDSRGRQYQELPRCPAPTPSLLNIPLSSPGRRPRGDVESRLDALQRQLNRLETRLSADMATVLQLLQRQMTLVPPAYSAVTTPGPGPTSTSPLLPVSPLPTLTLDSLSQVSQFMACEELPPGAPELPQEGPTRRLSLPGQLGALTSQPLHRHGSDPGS

SMILES | hERG current change (%, negative = inhibition) at 10uM [%]
Cc1ccc2cccc(Oc3cnccn3)c2n1 | 1.04
CC1CCCN(S(=O)(=O)c2ccc(C(=O)Nc3nnc(-c4ccncc4)o3)cc2)C1 (centres unmarked) | 1.86
CN=C(Nc1ccc(Cl)cc1)c1ccc(C(F)(F)F)cc1 | -17.8
Cc1ccccc1NC(=O)C(C)N1C(=O)c2ccccc2C1=O (centres unmarked) | 14.7
CCN1C(=O)CS/C1=N\S(=O)(=O)c1ccc(Cl)cc1 | 18
NC(=O)c1cc(-c2ccccc2)nc2ccc(Br)cc12 | 13.7
CC(=O)Nc1sc(N/N=C/c2ccc(C)cc2)nc1-c1ccc(C)cc1 | 0.792
Cc1cc(NC(=O)CS(=O)(=O)c2ccc(F)cc2)no1 | -7.77
CCn1ncc(C2=NOC(C(=O)Nc3ccccc3C(=O)OC)C2)c1C (centres unmarked) | -15.9
O=[N+]([O-])c1ccccc1OCCN1CCCC1 | 5.97
N/C(=N\OC(=O)CCC1CCCCC1)c1cccc([N+](=O)[O-])c1 | -15.1
C[n+]1ccccc1C1CCCC/C1=N\NC(N)=S.[Cl-] (centres unmarked) | 35.8
COc1ccc(-c2nn(-c3ccccc3)cc2CN(C)CCn2ccnc2C)c(F)c1 | -57.6
Cc1ccc2[nH]c(=O)c(CN(Cc3ccccc3)Cc3nnnn3C3CCCC3)cc2c1 | -6.83
O=C(NCCCc1ccccc1)c1ccccc1O | -0.415
CCOc1ccc(CNCCCSc2ncccn2)cc1OC.Cl | -20.3
CC(=O)c1c(N2CCCCC2)nc(=O)n(-c2ccccc2)c1C | 9.17
O=C1c2cccc(OCC(=O)N3CCCc4ccccc43)c2CCN1Cc1ccccc1 | -17.8
O=C(O)c1cc([N+](=O)[O-])c(Sc2nc3ccccc3[nH]2)c([N+](=O)[O-])c1 | 3.61
C/C(=N\NC(=O)c1ccc([N+](=O)[O-])c(C)c1)c1ccccc1Cl | -1.51
Cc1cccc(NC(=O)CCCN=C2NS(=O)(=O)c3ccccc32)c1C | 5.14
COc1ccc(Nc2oc(-c3ccccc3F)nc2C#N)cc1 | 22.3

SMILES | hERG current change (%, negative = inhibition) at 10uM [%]
Cc1ccc(N2C(=O)Nc3ccccc3C2(O)C(=O)N2CCN(c3ccccn3)CC2)cc1C (centres unmarked) | 4.54
c1csc(-c2nnsc2-c2nc3ccccc3[nH]2)c1 | -7.14
COc1ccc(-c2csc(NCc3ccco3)n2)cc1 | 2.59
Cc1ccc(C2NC(=O)CCC2[N+](=O)[O-])cc1 (centres unmarked) | 13
O=C(Nc1ccc2c3c(cccc13)CC2)c1cccc([N+](=O)[O-])c1 | -4.61
CCN(c1ccccc1)c1nc(=O)c2cccnc2s1 | -13.8
Cc1ccc2c(C)[nH]c(=O)cc2c1 | -0.081
Cc1cc(C)cc(NC(=O)CSc2nnc(Cn3c(=O)sc4ccccc43)n2C)c1 | -8.19
C/C(=N\NC(=O)c1ccc(CSc2nc(C)cc(C)n2)cc1)C1CCCCC1 | -10.2
O=C(O)CCc1nn2c3ccccc3n(Cc3ccccc3F)c2nc1=O | 19.7
CC(C)(c1ccccc1)c1ccc(OCCN2CCOCC2)cc1.Cl | -25.5
CCc1cccc(CC)c1NC(=S)NCc1ccc2[nH]c(C)cc2c1 | -3.12
Cn1ncc(Cl)c1C(=O)Nc1sc2c(c1C(N)=O)CCC2 | -4.17
CCOP(=O)(Oc1ccccc1)c1c([N+](=O)[O-])cc(C(F)(F)F)cc1[N+](=O)[O-] (centres unmarked) | 14.3
O=C1CCN(S(=O)(=O)c2cc(C(F)(F)F)ccc2Cl)CC1 | -1.34
COC(=O)C1=C(c2ccc(F)cc2OCc2ccccc2)C[C@@H]2CC[C@H]1N2C(=O)NCc1ccc(Cl)cc1 | 7.04
O=c1c(-c2ccccc2)c(O)c2c(n1-c1ccccc1)CCCC2 | -7.4
CN(C)c1cccc(C(=O)NC2CCCCCC2)c1 | 5.08
COC(=O)c1ccc(CN2CCN(C(C)C)C(CCO)C2)cc1 (centres unmarked) | 3.39
Cc1ccc(S(=O)(=O)C2(C(=O)Nc3nccs3)CC2)cc1 | -10.4
Cc1[nH]n(-c2ccccc2)c(=O)c1/C=N/NC(=O)COc1ccccc1[N+](=O)[O-] | 19.7
CN(C)N1C(=O)CC(N2CCCCC2)C1=O (centres unmarked) | 6.08

SMILES | hERG current change (%, negative = inhibition) at 10uM [%]
O=C(Cn1ncn2c(cc3ccccc32)c1=O)NCCCc1ccccc1 | 5.88
CC(C)CC(C(=O)NC1CCCCC1)N(Cc1ccccc1)C(=O)c1snc(C(N)=O)c1N (centres unmarked) | -10.4
O=C(c1cccc(NS(=O)(=O)c2ccccc2)c1)N1CCCC1 | 16.9
Cc1cc(=O)[nH]c(N2CCN(C(c3ccccc3)c3ccccc3)CC2)n1 | 18.6
CN(C)c1ccc(C2Nc3ccccc3C(=O)N2NS(=O)(=O)c2ccccc2)cc1 (centres unmarked) | 16.7
COCC(C)n1c(SCC(=O)Nc2ccc3c(c2)OCCO3)nc2ccccc2c1=O (centres unmarked) | -20.7
[O-][Cl+3]([O-])([O-])[O-].c1ccc(-c2nc(N3CCOCC3)s[n+]2-c2ccccc2)cc1 | 7.64
Cc1nc2ccc(NC(=O)c3nn(CC(C)C)c(=O)c4ccccc34)cc2s1 | -26
CC(C)COc1cccc(C(=O)NC(=S)Nc2cccc(NC(=O)c3ccccc3Cl)c2)c1 | 7.6
COc1ccc(C)cc1NC(=S)NC(C)c1ccc(OC)c(OC)c1 (centres unmarked) | -8.84
COCCCNS(=O)(=O)c1ccc(Oc2ncc(C(F)(F)F)cc2Cl)cc1 | 5.64
CN(C)c1ccc(N2C(=NC(=O)CCC3CCCC3)SC3CS(=O)(=O)CC32)cc1 (centres unmarked) | 17.1
O=C(NCCC1CCCCN1S(=O)(=O)c1ccccc1)C(=O)NCc1ccccn1 (centres unmarked) | -10.3
S=C(Nc1ccccc1)N1CCCCCCC1 | 8.2
COc1cc(OC)cc(C(=O)OCCNC(=O)Cn2cnc3c2c(=O)n(C)c(=O)n3C)c1 | 0.82
CC(=O)[C@@]1(O)CC[C@H]2[C@@H]3CCC4=CC(=O)CC[C@]4(C)[C@H]3[C@@H](O)C[C@@]21C | 17
Brc1ccc(-c2noc(C3CCCCC3)n2)cc1 | -7.78
O=C1/C(=C/c2ccccc2Cl)SC(=S)N1CCCC(=O)N(CCO)c1ccccc1 | -12.8
O=C(O)C(=O)O.OC1CCCN(CC(O)COC(c2ccc(F)cc2)c2ccc(F)cc2)C1 (centres unmarked) | -57.6
COc1ccc(CCNC(=O)c2ccc3nc4cc(Cl)ccc4c(=O)n3c2)cc1OC | -9.27
CC#CC[N+](C)(CC#CC)CC(=O)c1ccccc1.[Br-] | 25.3
Cc1ccccc1CSc1ccc2nnc(-c3ccccn3)n2n1 | -81.6

SMILES | hERG current change (%, negative = inhibition) at 10uM [%]
Cc1ccc(NS(=O)(=O)c2ccc(C(=O)N3CCCN(C)CC3)cc2)cc1 | -10.6
CCCOc1ccc(N2C(=O)CC(N3CCN(c4ccccc4F)CC3)C2=O)cc1 (centres unmarked) | -9.83
O=C(O)CCC(=O)Nc1ccc(C(=O)OC2CCCCC2)cc1 | 10.9
COc1cc(C2CC(=O)Oc3c2c(=O)n(C)c2ccccc32)cc(OC)c1OC (centres unmarked) | 12.3
Cn1ncc(Cl)c1C(=O)N/N=C/c1cc2c(cc1[N+](=O)[O-])OCO2 | -7.29
O=c1cc(O)c2sc(Nc3cccc(C(F)(F)F)c3)nc2[nH]1 | -32.5
O=C(CNC1CCCCCC1)Nc1ccccc1N1CCCCC1.O=C(O)C(=O)O | -30.5
Cc1nn(-c2ccccc2)cc1/C=N/O | 0.476
O=C(COc1ccc(-c2ccccc2)cc1)Nc1cccnc1 | 11.6
COC(=O)c1ccc(/C=N/NC(=O)c2ccccc2Cl)cc1 | 2.11
O=C(NCC12CC3CC(CC(C3)C1)C2)c1nn2cccnc2c1Cl | -36.5
CC(C)c1nc2c(c(=O)n(C)c(=O)n2C)n1C | -1.37
CC(C)N(CCNC(=O)c1ccc(NC2=NC3CS(=O)(=O)CC3S2)cc1)Cc1ccco1 (centres unmarked) | 17.1
CCOc1ccc(NC(=O)c2ccccc2NS(=O)(=O)c2ccc(F)cc2)c([N+](=O)[O-])c1 | 13.7
CC(C)(C)n1nnnc1C(c1ccncc1)N1CCN(c2ccc(O)cc2)CC1 (centres unmarked) | -4.64
CC1=C(C(=O)OCc2ccccc2)C(c2ccc(Cl)cc2)NC(=O)N1CCCCCC(=O)O (centres unmarked) | -9.98
Cc1cc(O)c(C(=O)/C=C/c2c(F)c(F)c(F)c(F)c2F)c(=O)o1 | 21.4
CCC(C)N(C(=O)CN1C(=O)NC2(CCc3ccccc32)C1=O)C1CCS(=O)(=O)C1 (centres unmarked) | -3.41
Cc1cc(C)cc(NC(=S)NCCSc2ccc(Cl)cc2)c1 | 7.18
COc1ccccc1C(=O)N=C1SC2CS(=O)(=O)CC2N1c1ccccc1 (centres unmarked) | 20.8
